Data reported in the BET-seq Pho4 binding data (Le et al. 2018).
The list shows a part of the results. Values were computed here from the reads of four pooled replicates and scatter widely.

What follows are sequences tested against T1, Pho4 (S. cerevisiae) (UniProt P07270) (assay: relative binding free energy (BET-seq); higher = weaker binding). Details: reference: library average.
T1 sequence: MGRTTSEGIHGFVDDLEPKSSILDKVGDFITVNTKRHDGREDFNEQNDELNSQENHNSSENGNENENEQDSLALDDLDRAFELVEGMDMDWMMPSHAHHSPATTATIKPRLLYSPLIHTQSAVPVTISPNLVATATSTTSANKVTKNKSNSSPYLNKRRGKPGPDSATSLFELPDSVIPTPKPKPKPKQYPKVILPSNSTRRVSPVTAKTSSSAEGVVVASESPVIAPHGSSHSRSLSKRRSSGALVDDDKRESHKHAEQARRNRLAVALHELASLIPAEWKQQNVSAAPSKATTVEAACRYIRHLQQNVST

| Sequence | relative binding free energy |
| --- | --- |
| TAGTTCACGTGAGCGT | 0.37 kcal/mol |
| TTGACCACGTGGAAGG | 0.07 kcal/mol |
| TCGGTCACGTGGAAGG | 0.19 kcal/mol |
| GCGGGCACGTGGAGTT | -0.09 kcal/mol |
| TTGTTCACGTGTGGTA | 0.39 kcal/mol |
| TCTGACACGTGGGAGT | 0 kcal/mol |
| ATATGCACGTGGGGGG | -0.2 kcal/mol |
| GGGGACACGTGATTTA | 0.3 kcal/mol |
| ATCTTCACGTGAGGGT | 0.38 kcal/mol |
| GGATGCACGTGGTGGA | -0.07 kcal/mol |
| GTTTTCACGTGTATAA | 0.17 kcal/mol |
| TTGAGCACGTGATCGG | -0.12 kcal/mol |
| GTGCCCACGTGGGTGG | -0.23 kcal/mol |
| GCAGTCACGTGAGTTT | 0.29 kcal/mol |
| GGGGCCACGTGTGCGT | -0.15 kcal/mol |
| TTTAGCACGTGTTAAC | 0 kcal/mol |
| GGATGCACGTGAGGTG | 0.36 kcal/mol |
| TCGTACACGTGTTGAG | 0.03 kcal/mol |
| TGGTTCACGTGCGTGG | 0.25 kcal/mol |
| CGGGGCACGTGTAGCT | -0.16 kcal/mol |
| TGTGTCACGTGATAGG | 0.22 kcal/mol |
| GTTGTCACGTGCGTGA | 0.06 kcal/mol |
| GGAATCACGTGTGAGT | 0.15 kcal/mol |
| GAGGCCACGTGAGTGG | 0.22 kcal/mol |
| TGGTGCACGTGGCGAC | -0.13 kcal/mol |

| Sequence | relative binding free energy |
| --- | --- |
| GTGAGCACGTGATCGT | 0.11 kcal/mol |
| ATGTTCACGTGTCGGA | 0.35 kcal/mol |
| AGAGACACGTGGGGTC | -0.19 kcal/mol |
| AGTCGCACGTGTAGTG | 0.04 kcal/mol |
| GTAGTCACGTGGGGTA | -0.15 kcal/mol |
| TTGTGCACGTGAGGGT | 0.27 kcal/mol |
| TTGGACACGTGGATGG | 0.13 kcal/mol |
| ATGATCACGTGACGTG | 0.18 kcal/mol |
| ACTGGCACGTGGGGGT | -0.36 kcal/mol |
| ACGGGCACGTGTGTCT | -0.06 kcal/mol |
| GATTCCACGTGGATGT | 0.2 kcal/mol |
| ATATTCACGTGGCGTA | 0.09 kcal/mol |
| GGGGCCACGTGTTAAG | 0.08 kcal/mol |
| GGTAACACGTGTGTCT | -0.03 kcal/mol |
| CTTTGCACGTGGGGCG | -0.15 kcal/mol |
| ATTGTCACGTGGGATA | -0.03 kcal/mol |
| ATATCCACGTGGGGTT | -0.04 kcal/mol |
| CAGTGCACGTGTCTGT | 0.01 kcal/mol |
| CGGGTCACGTGTGAGC | 0.17 kcal/mol |
| AAGGGCACGTGATGTA | -0.03 kcal/mol |
| GGGGACACGTGCATTG | -0.1 kcal/mol |
| AGTCGCACGTGAGGTT | 0.17 kcal/mol |
| GGCTGCACGTGCTAGG | -0.04 kcal/mol |
| GTTTTCACGTGTATTA | 0.28 kcal/mol |
| GTCTTCACGTGAGTTG | 0.25 kcal/mol |

| Sequence | relative binding free energy |
| --- | --- |
| TTAATCACGTGTCGTT | 0.28 kcal/mol |
| CGGGGCACGTGGTTCG | -0.04 kcal/mol |
| TAGGTCACGTGTCTGG | 0.17 kcal/mol |
| GGGGGCACGTGCGTGC | -0.23 kcal/mol |
| ATATGCACGTGATAAT | 0.02 kcal/mol |
| TGCGTCACGTGAGGAC | 0.35 kcal/mol |
| AGGGGCACGTGAATCG | 0.23 kcal/mol |
| CTGAGCACGTGTATGT | -0.06 kcal/mol |
| GTGCGCACGTGAGTGT | 0.06 kcal/mol |
| GGGCGCACGTGTGAGC | 0.1 kcal/mol |
| AGGTACACGTGGAGCA | 0.09 kcal/mol |
| GCTGTCACGTGGGCTT | 0.01 kcal/mol |
| TTATTCACGTGGTTGG | 0.31 kcal/mol |
| AGGGGCACGTGCTAGT | -0.25 kcal/mol |
| TGGCGCACGTGTTATG | 0.1 kcal/mol |
| GTCTGCACGTGATGTT | 0.25 kcal/mol |
| TGCTCCACGTGTGGGG | -0.08 kcal/mol |
| GACAACACGTGTTTGG | 0.16 kcal/mol |
| ATGGGCACGTGGTATT | -0.19 kcal/mol |
| CCTTGCACGTGGTGTG | -0.21 kcal/mol |
| AGCGGCACGTGTAGCG | 0 kcal/mol |
| TAATTCACGTGGATAT | 0.27 kcal/mol |
| GAACGCACGTGTGTTT | 0.1 kcal/mol |
| GTGGGCACGTGTACGC | 0.03 kcal/mol |
| GGGTTCACGTGAAAGG | 0.45 kcal/mol |

| Sequence | relative binding free energy |
| --- | --- |
| GGGTACACGTGCCGTG | -0.03 kcal/mol |
| CGGTTCACGTGAAATT | 0.52 kcal/mol |
| TGGTACACGTGGAGGG | 0 kcal/mol |
| AGAGGCACGTGTGGGA | -0.01 kcal/mol |
| GGTGGCACGTGAGGAT | 0.24 kcal/mol |
| TGGTGCACGTGGTATT | -0.09 kcal/mol |
| TGTGGCACGTGCTGGC | -0.15 kcal/mol |
| AACATCACGTGTGGGA | 0.2 kcal/mol |
| AGTCTCACGTGTGATT | 0.23 kcal/mol |
| TTTAGCACGTGATCTA | -0.03 kcal/mol |
| CTTGGCACGTGTTTTT | -0.02 kcal/mol |
| ATTGGCACGTGGCATT | -0.15 kcal/mol |
| AAGGGCACGTGATTTA | 0.01 kcal/mol |
| ATTAACACGTGTGGAT | -0.02 kcal/mol |
| GGTGTCACGTGCGTAA | 0.02 kcal/mol |
| GCGGGCACGTGTTTAG | 0.02 kcal/mol |
| ACTTGCACGTGATGGG | 0.26 kcal/mol |
| ATGTGCACGTGGCTGC | -0.04 kcal/mol |
| ATTAACACGTGAGGGA | 0.28 kcal/mol |
| GCTTACACGTGGTAAG | 0.24 kcal/mol |
| GTATTCACGTGCGAGG | 0.16 kcal/mol |
| AATTTCACGTGGTGAG | 0.14 kcal/mol |
| GCTGGCACGTGGTATG | -0.23 kcal/mol |
| GTATTCACGTGTGTTC | 0.15 kcal/mol |
| GTTGTCACGTGGGCAT | -0.02 kcal/mol |

| Sequence | relative binding free energy |
| --- | --- |
| TCAATCACGTGAGGTT | 0.27 kcal/mol |
| AGTGTCACGTGGATGA | -0.02 kcal/mol |
| TTAAACACGTGTCAGT | 0.18 kcal/mol |
| ATGGGCACGTGGATCG | -0.16 kcal/mol |
| AGCTTCACGTGTGTTT | 0.24 kcal/mol |
| ATACTCACGTGTAGGT | 0.06 kcal/mol |
| AGAGTCACGTGTGCTA | 0.19 kcal/mol |
| ATATGCACGTGGTCGT | -0.11 kcal/mol |
| ACTGCCACGTGTGGGT | -0.09 kcal/mol |
| GGGACCACGTGTGGGA | -0.07 kcal/mol |
| TCGGGCACGTGTGATT | 0.02 kcal/mol |
| TAGTGCACGTGATTGA | 0.07 kcal/mol |
| TGGGACACGTGGTCAA | -0.03 kcal/mol |
| TGGGTCACGTGTTGTA | 0.22 kcal/mol |
| GCGTGCACGTGGTGAT | 0 kcal/mol |
| TCATACACGTGAGGGG | 0.26 kcal/mol |
| AGTGACACGTGCCTGG | -0.02 kcal/mol |
| GTTTCCACGTGGGATA | 0.07 kcal/mol |
| TGGGCCACGTGCGAGG | -0.16 kcal/mol |
| GTGGACACGTGGGGCA | -0.25 kcal/mol |
| GGATTCACGTGGGTTA | 0.3 kcal/mol |
| TCTTGCACGTGAAGAT | 0.37 kcal/mol |
| CGGGACACGTGGGGGC | -0.16 kcal/mol |
| GTAGCCACGTGGGAGG | -0.18 kcal/mol |
| AGAGTCACGTGGTATA | -0.07 kcal/mol |

| Sequence | relative binding free energy |
| --- | --- |
| TTAAGCACGTGTGGGG | 0 kcal/mol |
| CGATTCACGTGGTGCG | 0.13 kcal/mol |
| ATAAGCACGTGAGGCT | 0.2 kcal/mol |
| GTTAACACGTGAGTTA | 0.18 kcal/mol |
| CTGTGCACGTGATGTG | 0.17 kcal/mol |
| GGCCCCACGTGGGTGG | -0.3 kcal/mol |
| GTGTGCACGTGCTAGG | -0.08 kcal/mol |
| TTCGGCACGTGGAGTA | -0.17 kcal/mol |
| TTGAACACGTGCTTGG | 0.02 kcal/mol |
| CGGGACACGTGAGGTT | 0.25 kcal/mol |
| TTGTTCACGTGATCGG | 0.09 kcal/mol |
| CTGAGCACGTGTTTTG | -0.07 kcal/mol |
| TTTTGCACGTGGGACA | -0.11 kcal/mol |
| GGTCTCACGTGTCTGG | 0.24 kcal/mol |
| TGGCTCACGTGGGGCG | 0.11 kcal/mol |
| GTATTCACGTGATTAA | 0.3 kcal/mol |
| CACGGCACGTGATGGG | 0.03 kcal/mol |
| TCCGGCACGTGTGTGT | 0 kcal/mol |
| TAATTCACGTGGCTGA | 0.4 kcal/mol |
| CATGGCACGTGGGGCA | -0.14 kcal/mol |
| GGGGTCACGTGCGCTT | 0.05 kcal/mol |
